Reference: the supplement of paper PMC6135742
Structures can show the parent of a compound that is named as a salt. ± gives the standard deviation of the averaged measurements. In all, about 2,600 compounds were measured (“MBP+ mature oligodendrocyte number relative to DMSO vehicle control”: median about -0.34, highest 2% from about 13 on). The list shows a part of the results.

Each molecule was assayed on jimpy (Plp1 jimpy) mouse iPSC-derived oligodendrocyte progenitor cells (assay: MBP+ mature oligodendrocyte number relative to DMSO vehicle control (SDs above negative control mean); higher = more surviving jimpy oligodendrocytes (rescue)). Details: 10 µM; 3 days.
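Also: 10 µM single dose with 3-day oligodendrocyte differentiation.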

| Structure (SMILES) | MBP+ mature oligodendrocyte number |
| --- | --- |
| CCCc1cc(=O)[nH]c(=S)[nH]1 [Propylthiouracil] | 0.523 |
| O=C(Nc1ccccc1)c1cc([N+](=O)[O-])ccc1Cl | -1.64 ± 1.1 |
| C=C1C(=O)O[C@@H]2/C=C(\C)CC/C=C(\C)CC[C@@H]12 [Costunolide] | < -6.7 |
| C[C@]12CC[C@@H]3c4ccc(O)cc4CC[C@H]3[C@@H]1CC[C@@H]2O [beta-Estradiol] | 3.17 |
| C[C@]12CC[C@@H]3c4ccc(O)cc4CC[C@H]3[C@@H]1CC[C@@H]2O [Estradiol] | 5.47 |
| CCNC(=O)Nc1ccc(-c2nc3c(c(N4CCOC[C@@H]4C)n2)CCN(C2COC2)C3)cc1 | -4.52 |
| CCCN(CCC)S(=O)(=O)c1ccc(C(=O)O)cc1 [Probenecid] | 3.7 |
| O=c1[nH]c(=S)[nH]c(-c2ccccc2)c1Cc1c(O)ccc2ccccc12 [Cambinol] | 0.555 |
| CC(C)c1ccc(NC(=O)Cn2cnc3c2c(=O)n(C)c(=O)n3C)cc1 | 4.15 |
| C[C@H](NC(=O)/C(C#N)=C/c1cccc(Br)n1)c1ccccc1 | < -6.01 |
| CCNC(=O)c1[nH]nc(-c2cc(Cl)c(O)cc2O)c1-c1ccc(OC)cc1 | -4.64 |
| CCOC(=O)CCNc1cc(N2CCc3ccccc3CC2)nc(-c2ccccn2)n1 | < -6.35 |
| CN(C)CCOC(c1ccccc1)c1ccccc1 [Diphenhydramine HCl] | -1.37 |
| CN(C)CCOC(c1ccccc1)c1ccccc1 [Diphenhydramine hydrochloride] | -1.59 |
| CC(=O)[C@H]1CC[C@H]2[C@@H]3CCC4=CC(=O)CC[C@]4(C)[C@H]3CC[C@]12C [Progesterone] | 15.4 ± 7.2 |
| Cn1cc(CNCC2CCN(c3ncc(C(=O)NO)cn3)CC2)c2ccccc21 | < -6.7 |
| OC(CN1CCC(Cc2ccc(F)cc2)CC1)c1ccc(Cl)cc1 (configuration not stated) [Eliprodil] | 13.4 |
| CN(C)CC/C=C1/c2ccccc2Sc2ccc(Cl)cc21 [Chlorprothixene] | -4.88 |
| CN(C)CC/C=C1/c2ccccc2Sc2ccc(Cl)cc21 [Chlorprothixene hydrochloride] | -3.22 |
| N[C@@H](Cc1cc(I)c(Oc2cc(I)c(O)c(I)c2)c(I)c1)C(=O)O [L-Thyroxine] | -1.06 |
| CC1(C)CCC(C)(C)c2cc(NC(=O)c3ccc(C(=O)O)cc3)ccc21 [Tamibarotene] | -5.08 |
| O=C(O)C(O)Cc1ccc(O)c(O)c1 (configuration not stated) [Danshensu sodium salt] | -0.747 |
| O=C(O)C(O)Cc1ccc(O)c(O)c1 (configuration not stated) [Sodium Danshensu] | 1.57 |
| O=C1Nc2ccccc2/C1=C1/Nc2ccccc2C1=O [Indirubin] | 1.91 |

| Structure (SMILES) | MBP+ mature oligodendrocyte number |
| --- | --- |
| CN1C[C@H](O)[C@@H](O)[C@H](O)[C@H]1CO [N-Methyl-1-deoxynojirimycin] | -0.439 |
| Nc1cccc2c1C(=O)N(C1CCC(=O)NC1=O)C2=O (configuration not stated) [Pomalidomide] | -0.197 |
| Oc1ccc(OC2CCCCO2)cc1 (configuration not stated) [Deoxyarbutin] | -1.79 |
| C=C1C[C@@]23CC[C@H]4[C@@](C)(CCC[C@@]4(C)C(=O)O)[C@@H]2CC[C@]1(O)C3 [Steviol] | -0.354 |
| Nc1ccn([C@@H]2O[C@H](CO)[C@@H](O)C2(F)F)c(=O)n1 [Gemcitabine] | 11.8 |
| Nc1ccn([C@@H]2O[C@H](CO)[C@@H](O)C2(F)F)c(=O)n1 [Gemcitabine hydrochloride] | 4.4 |
| CO[C@H]1C[C@@H]2CC[C@@H](C)[C@@](O)(O2)C(=O)C(=O)N2CCCC[C@H]2C(=O)O[C@H]([C@H](C)C[C@@H]2CC[C@@H](OCCO)[C@H](OC)C2)CC(=O)[C@H](C)/C=C(\C)[C@@H](O)[C@@H](OC)C(=O)[C@H](C)C[C@H](C)/C=C/C=C/C=C/1C [Everolimus (RAD001)] | -0.938 |
| CN(C)CCN(Cc1ccccc1)c1ccccn1 [Tripelennamine HCl] | 1.77 |
| CC1CNc2c(cccc2S(=O)(=O)N[C@@H](CCCNC(=N)N)C(=O)N2CC[C@@H](C)C[C@@H]2C(=O)O)C1 (some centres not stated) [Argatroban] | 0.0731 |
| CC1CNc2c(cccc2S(=O)(=O)N[C@@H](CCCNC(=N)N)C(=O)N2CC[C@@H](C)C[C@@H]2C(=O)O)C1 (some centres not stated) [Argatroban monohydrate] | -1.61 |
| C=CC1=C(C)c2cc3[nH]c(cc4nc(cc5[nH]c(cc1n2)c(C)c5CCC(=O)O)C(CCC(=O)O)=C4C)c(C)c3C=C [Protoporphyrin IX disodium] | -2.96 |
| O=C(/C=C/c1ccccc1)NC(NC(=S)Nc1cccc2cccnc12)C(Cl)(Cl)Cl (configuration not stated) [Salubrinal] | 19 |
| CC(=O)O[C@@]12CO[C@@H]1C[C@H](O)[C@@]1(C)C(=O)[C@H](O)C3=C(C)[C@@H](OC(=O)[C@H](O)[C@@H](NC(=O)OC(C)(C)C)c4ccccc4)C[C@@](O)([C@@H](OC(=O)c4ccccc4)[C@H]21)C3(C)C [Docetaxel] | -4.43 |
| Nc1ncnc2c1ncn2[C@@H]1O[C@H](CO)[C@@H](O)[C@H]1O [Adenosine] | -0.00311 ± 0.11 |
| Clc1ccc(CSC(Cn2ccnc2)c2ccc(Cl)cc2Cl)cc1 (configuration not stated) [Sulconazole Nitrate] | 9.19 |
| O=C(c1ccc(Nc2nccc(-c3cc4ccccc4s3)n2)cc1)N1CCC(N2CCCC2)CC1 [IKK-16 (IKK Inhibitor VII)] | < -6.01 |
| C[n+]1cc2c3c(ccc2c2ccc4cc5c(cc4c21)OCO5)OCO3 [Sanguinarine chloride] | < -3.85 |
| Cc1cc(C)c(Nc2ccnc(Nc3ccc(C#N)cc3)n2)c(C)c1 [Dapivirine (TMC120)] | < -6.01 |
| N[C@H]1C[C@@H]1c1ccc(-c2cccc(O)c2)cc1 | 3.03 |
| CCCc1c2oc(C(=O)O)cc(=O)c2cc2c(=O)cc(C(=O)O)n(CC)c12 [Nedocromil] | -0.997 |
| CC(=O)O[C@]1(C(C)=O)CC[C@H]2[C@@H]3C=C(Cl)C4=CC(=O)[C@@H]5C[C@@H]5[C@]4(C)[C@H]3CC[C@@]21C [Cyproterone Acetate] | 21.5 |
| CC(=O)O[C@]1(C(C)=O)CC[C@H]2[C@@H]3C=C(Cl)C4=CC(=O)[C@@H]5C[C@@H]5[C@]4(C)[C@H]3CC[C@@]21C [Cyproterone acetate] | 3.38 |
| CC(C)c1cc(-c2n[nH]c(=O)n2-c2ccc3c(ccn3C)c2)c(O)cc1O [Ganetespib (STA-9090)] | < -6.7 |
